In PubChem BioAssay AID720708 (National Center for Advancing Translational Sciences (NCATS), 2013):
The campaign covered roughly 360,000 compounds. About 660 (0.18%) were called active. Inconclusive means that the source gave no clear call. Such entries were picked first, then a sample of the others. The call rests on the fitted dose curve; in most records, active means well fitted inhibition curve with a large enough effect; inconclusive means small, poorly fitted or top-dose-only effect; inactive means no such curve, though single readings can be large or run the other way. Potencies of inconclusive entries are left out as doubtful fits.

target: Rap guanine nucleotide exchange factor 4 (Homo sapiens) (UniProt Q8WZA2); experiment: qHTS for Antagonist of cAMP-regulated guanine nucleotide exchange factor 2 (EPAC2): primary screen; settings: EPAC2 GEF exchange of Rap1B-BODIPY-GDP, fluorescence; activity, negative = inhibition: at 114 µM (top of the series) unless noted; further: nearly all actives have a fitted effect of over 45% in size
On the % scale 0 is the no-effect control and ±100 the full control effect; potency means the concentration at half of the fitted maximal effect; tags describe the fitted curve by direction and shape.

UniProt Q8WZA2, sequence (Q8WZA2 whole entry, looked up): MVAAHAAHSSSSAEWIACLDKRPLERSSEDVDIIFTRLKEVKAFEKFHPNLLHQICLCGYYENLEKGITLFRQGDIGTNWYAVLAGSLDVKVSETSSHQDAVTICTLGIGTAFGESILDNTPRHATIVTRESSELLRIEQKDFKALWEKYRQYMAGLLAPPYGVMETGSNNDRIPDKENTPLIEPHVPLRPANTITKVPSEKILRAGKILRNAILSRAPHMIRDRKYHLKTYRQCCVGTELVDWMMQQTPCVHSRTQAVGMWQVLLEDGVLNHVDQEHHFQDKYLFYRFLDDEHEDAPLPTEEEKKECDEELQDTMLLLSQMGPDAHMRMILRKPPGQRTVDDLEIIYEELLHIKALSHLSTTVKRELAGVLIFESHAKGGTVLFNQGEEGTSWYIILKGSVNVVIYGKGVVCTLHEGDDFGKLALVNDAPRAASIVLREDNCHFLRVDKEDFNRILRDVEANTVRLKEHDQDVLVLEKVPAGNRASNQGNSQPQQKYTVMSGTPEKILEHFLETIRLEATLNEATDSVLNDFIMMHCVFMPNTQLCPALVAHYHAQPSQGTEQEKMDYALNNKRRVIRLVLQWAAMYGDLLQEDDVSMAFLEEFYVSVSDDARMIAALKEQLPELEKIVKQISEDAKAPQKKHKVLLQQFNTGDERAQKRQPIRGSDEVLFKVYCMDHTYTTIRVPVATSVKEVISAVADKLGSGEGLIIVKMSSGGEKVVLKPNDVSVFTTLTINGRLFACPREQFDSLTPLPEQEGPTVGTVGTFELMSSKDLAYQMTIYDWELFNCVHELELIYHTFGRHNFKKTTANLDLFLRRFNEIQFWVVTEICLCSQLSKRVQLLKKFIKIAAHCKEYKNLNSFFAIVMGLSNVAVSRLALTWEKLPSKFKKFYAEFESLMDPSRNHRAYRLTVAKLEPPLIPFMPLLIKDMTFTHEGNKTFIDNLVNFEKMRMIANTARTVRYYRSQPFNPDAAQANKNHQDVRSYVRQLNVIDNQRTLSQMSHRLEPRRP

SMILES | Potency | activity, negative = inhibition
CCCCCC1=CCC/C1=N\NC(=O)c1ccc2c(c1)OCO2 | inconclusive [inhibitor, full curve, poor fit] | 
CCn1c(COc2ccc(C)cc2)nc2ccccc21 | inconclusive [inhibitor, partial curve] | 
Cc1cc(Cl)ccc1OC(C)C(=O)NCCc1ccc2c(c1)OCCO2 (stereo not drawn) | inconclusive [inhibitor, full curve] | 
CCC(C(=O)OCC(=O)c1ccc2c(c1)NC(=O)CO2)c1ccccc1 (stereo not drawn) | inconclusive [inhibitor, partial curve] | 
COc1cc(Br)c(-c2sc(Nc3ccccc3)n[n+]2-c2ccc(F)cc2)cc1OC | inconclusive [inhibitor, partial curve] | 
CCC(=O)CN(Cc1cc(OC)ccc1OC)S(=O)(=O)c1ccccc1Br |  | inconclusive: -15.7% [inhibitor]
Cc1ccc(C(NC(=O)c2ccccc2S(C)(=O)=O)c2ccccc2)cc1 (stereo not drawn) | inconclusive [inhibitor, partial curve] | 
O=C1NN(c2ccccc2)C(=O)/C1=C\c1cccc(OC(=O)c2cccs2)c1 | inactive | 
CN(C)c1ccccc1C(=O)N1CCCC(C(=O)c2ccc3ccccc3c2)C1 (stereo not drawn) | inconclusive [inhibitor, partial curve] | 
Cc1cccc(C)c1-n1nnnc1C(c1ccnc2ccccc12)N1CCCC1 (stereo not drawn) | inconclusive [inhibitor, full curve, poor fit] | 
O=C(c1ccc(C(=O)N2CCCc3ccccc32)s1)N1CCCc2ccccc21 | inactive | 
CCc1ccccc1Oc1nc(NC(C)C)nc2ccsc12 | inconclusive [inhibitor, full curve] | 
COc1ccc(S(=O)(=O)N2CCSC2C)cc1C (stereo not drawn) | inconclusive [inhibitor, partial curve] | 
CCSC1=N/C(=C\c2ccccc2)C(=O)N1c1ccc(OC)cc1 | inconclusive [inhibitor, full curve] | 
Cc1ccc(C(=O)c2coc3ccc(O)c(Cl)c23)cc1 | inconclusive [inhibitor, partial curve] | 
COc1ccc(CNC(=O)CNS(=O)(=O)c2ccc(Cl)cc2)cc1 | inconclusive [inhibitor, full curve, poor fit] | 
Cn1nnc2cc(C(=O)Nc3ccc4ccccc4c3)ccc21 | inconclusive [inhibitor, single point] | 
Cc1ccc(SC(CC(=O)c2ccc(F)cc2)C(=O)O)cc1 (stereo not drawn) | inactive | 
CCc1ccc(Nc2cnn(C34CC5CC(CC(CC(=O)O)(C5)C3)C4)c(=O)c2Cl)cc1 | inconclusive [inhibitor, single point] | 
COc1ccc(S(=O)(=O)Nc2nnc(Cc3ccc(OC)c(OC)c3)s2)cc1 | inconclusive [inhibitor, partial curve] | 
CC1CCC2=NN(C(=O)c3ccco3)C(O)(C(F)(F)F)C2C1 (stereo not drawn) | active: 50.1 µM | 
Cc1cccc(NC(=O)COC(=O)c2c(-c3ccccc3)noc2C)c1 | inconclusive [inhibitor, partial curve, poor fit] | 

SMILES | Potency | activity, negative = inhibition
COc1ccccc1N=Nc1ccc(O)c2ncccc12 | inconclusive [inhibitor, partial curve, poor fit] | 
COc1ccc(/C=C/C(=O)c2ccccc2)c(OC)c1 | inconclusive [inhibitor, partial curve] | 
O=C1NC[C@H](CCCCN2C[C@H](Cc3ccc(O)cc3)N(Cc3ccccc3)C(=O)C2=O)N(CCc2ccccc2)C1=O | inactive | 
C=C(C)c1sc(-c2ccc(Cl)cc2)nc1C | inconclusive [inhibitor, single point] | 
CCCc1c(-c2ccc(F)cc2)ncn1Cc1ccccc1OC | inconclusive [inhibitor, partial curve] | 
CC(C(=O)NC1(C#N)CCCCC1)N(C)CC(=O)Nc1ccc(Cl)c(Cl)c1 (stereo not drawn) | inconclusive [inhibitor, partial curve] | 
CSc1ccccc1NC(=O)CN1CCCCC1C (stereo not drawn) |  | inconclusive: -7.17% [inhibitor]
Cc1ccc(SC[C@H](C)CN2CC[C@H](C(C)(C)C)CCC2=O)cc1 | inconclusive [inhibitor, full curve, poor fit] | 
Cc1ccc(C(=O)O/N=C(\c2ccccc2)c2ccncc2)cc1 | inconclusive [inhibitor, partial curve] | 
CSc1nc(-c2cccs2)c(C#N)c(=O)[nH]1 | inactive | 
Fc1ccccc1C1CC(c2ccco2)=Nc2ccccc2S1 (stereo not drawn) | inconclusive [inhibitor, partial curve] | 
CC(=O)NC(c1cccc(F)c1)c1nc(-c2ccccc2)cs1 (stereo not drawn) | inconclusive [inhibitor, partial curve] | 
Cc1cccc(NC(=O)CN(C2=NC3CS(=O)(=O)CC3S2)c2ccccc2F)c1 (stereo not drawn) | inactive | 
CC(C)(C)c1ccc(Cn2cnc(-c3ccc([N+](=O)[O-])cc3)c2)cc1 | inconclusive [inhibitor, single point] | 
O=S(=O)(c1ccc(Cl)c2ccccc12)N1CCCC1 | inconclusive [inhibitor, partial curve] | 
CCc1nc2ccc(C(=O)N(C)CCCN(C)C)cn2c1N(C=O)CCC(C)C | inactive | 
O=C1C(=Cc2ccc(Cl)cc2)CCc2ccccc21 | inactive | 
CCCOc1ccc(NC(=O)CNC(=O)c2cc(OC)cc(OC)c2)cc1OCCC | inconclusive [inhibitor, full curve, poor fit] | 
O=C(Cc1ccc(Cl)cc1)N/N=C/c1ccc(O)c(O)c1 | inconclusive [inhibitor, partial curve] | 
COc1ccc(S(=O)(=O)N2CCCC2)cc1C(C)C | inconclusive [inhibitor, partial curve] | 
COc1ccc(N=C2SC(C(=O)Nc3ccc(C(=O)O)cc3)CC(=O)N2Cc2cccs2)cc1 (stereo not drawn) | inconclusive [inhibitor, partial curve] | 
